In patent publication US20040138247A1 (priority 1999, published 2004):

Assays:
[1] = co-administration of meals; PDR / CPS; cited from earlier work
[2] = tablet formulation 7.5 mg
[3] = not given; remark: listed apart in the source
clinical = conditions: human, plasma, po, 7.5 mg, oral single dose 7.5 mg tablet, Mean (% CV); for AUC: AUC(l), N=17; for Cmax: N=18
[4] = system: seasonal allergic rhinitis; assay: Double-blinded, randomized clinical trials in seasonal allergic rhinitis patients

| SMILES | Food effect (effects fed versus fasted) [1] | Effect of food intake on oral bioavailability [2] | Subjects reporting treatment-emergent adverse events (single 7.5 mg tablet fed and fasted, 9 of 18 subjects) [%] | Safety and tolerability (single oral doses 7.5 mg under fed and fasted conditions) | Blood pressure, pulse rate, electrocardiograms and oral body temperature evaluations ([3]; 5 mg tablet or syrup, healthy male and female subjects) | Safety and tolerability ([3]; 5 mg, tablet or syrup formulation) | Treatment-related AE: gastrointestinal disorders ([3]; 2/30) [%] | AUC (clinical; FASTED) [ng·h/mL] | AUC (clinical; FED) [ng·h/mL] | Cmax (clinical; FASTED) [ng/mL] | Cmax (clinical; FED) [ng/mL] | Reduction of nasal symptoms versus placebo ([4]; 5 mg) | Total symptom scores ([4]; 5 mg once daily, seasonal allergic rhinitis patients) | AM NOW total symptom score ([4]; 5 mg to 20 mg dosage range, 24 hours after dose) |
| --- | --- | --- | --- | --- | --- | --- | --- | --- | --- | --- | --- | --- | --- | --- |
| CCOC(=O)N1CCC(=C2c3ccc(Cl)cc3CCc3cccnc32)CC1 [loratadine] | higher than when loratadine is administered to a patient under fasted condition |  |  |  |  |  |  |  |  |  |  |  |  |  |
| Clc1ccc2c(c1)CCc1cccnc1C2=C1CCNCC1 [desloratadine] |  | no effect | 50 | safe and well tolerated | no consistent changes of clinical relevance | safe and well tolerated | 7 | 63.5 | 62.5 | 3.3 | 3.53 | significantly (p<0.01) more effective than placebo | significantly reduced | Statistically significant (p<0.05) reductions were maintained for the full 24 hour dosing interval |

Like-named read-outs stand apart in the source and are kept apart here.
